# Reference: paper PMC4336329 (PLoS ONE, 2015)
# Among all 310,000 compounds or so, about 2,200 (0.71%) showed an effect of 50% or more. Effects have a minus sign here. The list shows a part of the results.
# Molecular target: human ether-à-go-go-related gene (hERG) potassium channel (human, UniProt Q12809)
# Assay: primary screen, population patch clamp on CHO cells stably expressing hERG
# Sequence of human ether-à-go-go-related gene (hERG) potassium channel (Q12809 whole entry, looked up): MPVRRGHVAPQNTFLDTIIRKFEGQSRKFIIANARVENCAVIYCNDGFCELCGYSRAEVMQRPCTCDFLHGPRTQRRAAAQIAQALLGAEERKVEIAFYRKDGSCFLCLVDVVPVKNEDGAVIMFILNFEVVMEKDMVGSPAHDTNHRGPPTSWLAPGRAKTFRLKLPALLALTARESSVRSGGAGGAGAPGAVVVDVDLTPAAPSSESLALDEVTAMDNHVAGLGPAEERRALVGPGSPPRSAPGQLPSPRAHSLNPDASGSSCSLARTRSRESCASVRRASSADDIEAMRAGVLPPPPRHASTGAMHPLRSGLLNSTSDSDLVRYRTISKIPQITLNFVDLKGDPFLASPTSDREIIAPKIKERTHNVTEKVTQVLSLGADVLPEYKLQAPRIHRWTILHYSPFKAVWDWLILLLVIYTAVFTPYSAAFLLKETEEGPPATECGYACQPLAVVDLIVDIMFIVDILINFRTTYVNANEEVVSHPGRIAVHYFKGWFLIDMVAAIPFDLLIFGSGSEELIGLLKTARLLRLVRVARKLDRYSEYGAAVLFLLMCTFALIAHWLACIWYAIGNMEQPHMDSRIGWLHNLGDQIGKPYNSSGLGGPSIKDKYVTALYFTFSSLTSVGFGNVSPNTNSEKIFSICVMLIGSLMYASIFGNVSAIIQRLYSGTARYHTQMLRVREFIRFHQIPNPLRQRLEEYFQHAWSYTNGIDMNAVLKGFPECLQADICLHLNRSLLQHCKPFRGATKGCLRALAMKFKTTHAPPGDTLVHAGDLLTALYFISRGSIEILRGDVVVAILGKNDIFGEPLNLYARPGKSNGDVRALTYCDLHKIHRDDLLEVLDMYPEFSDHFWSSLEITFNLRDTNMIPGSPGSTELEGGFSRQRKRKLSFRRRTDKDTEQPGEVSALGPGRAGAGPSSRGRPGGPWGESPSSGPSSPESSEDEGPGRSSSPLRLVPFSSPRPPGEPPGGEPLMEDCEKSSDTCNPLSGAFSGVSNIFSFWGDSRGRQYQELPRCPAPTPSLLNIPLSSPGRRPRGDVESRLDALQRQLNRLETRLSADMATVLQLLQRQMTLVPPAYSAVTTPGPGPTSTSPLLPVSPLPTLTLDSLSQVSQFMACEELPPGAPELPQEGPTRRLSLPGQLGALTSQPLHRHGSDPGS
row,SMILES,"hERG current change (%, negative = inhibition) at 1uM [%]"
1,COc1ccc(NC(=O)CCC(=O)N2CCOCC2)c([N+](=O)[O-])c1,6.51
2,CCCCN1C(=O)NC(=O)/C(=C/c2cnc(SC)nc2)C1=O,7.6
3,CS(=O)(=O)c1ccc(-c2cccc(NC(=O)c3ccc(Br)o3)c2)nn1,9.28
4,COC(=O)C1=C(C)N(C)C(=O)NC1c1ccc(O)c(OC)c1 (stereo not drawn),10.4
5,CCCCCOc1ccc(/C=N/NC(=O)c2nnn(-c3nonc3N)c2CN2CCCCCC2)cc1,11.5
6,Cc1ccc(C2=NN=C(NC(=O)CSc3nncn3C)SC2)cc1,6.42
7,O=C(NCc1cccnc1)c1cc([N+](=O)[O-])ccc1N1CCOCC1,-11.7
8,COc1ccc(NS(=O)(=O)c2cc(C(=O)O)ccc2C)cc1,0.856
9,CC(Oc1ccc(C(C)(C)C)cc1)C(=O)NCC(c1ccco1)N1CCCC1 (stereo not drawn),-1.74
10,CC(Oc1ccc2c3c(c(=O)oc2c1)CCC3)C(=O)N[C@@H](Cc1ccccc1)C(=O)O (stereo partly drawn),2.76
11,C=CCCCCCCCCC(=O)NNC1CC(=O)N(c2ccccc2)C1=O (stereo not drawn),13.1
12,Cl.O=C(CN1CCCCC1)Nc1ccc(NC(=O)c2ccccc2Cl)cc1Cl,6.62
13,Cc1ccc(C(CNC(=O)c2ccc(Br)o2)N2CCN(C)CC2)cc1 (stereo not drawn),-10
14,Cc1n[nH]c(=O)c2c(NC(=O)COC(=O)Cc3c(F)cccc3Cl)oc(C)c12,13.4
15,S=C(NC1CCCC1)N1CCOCC1,6.59
16,Cc1ccc(C(=O)C(OC(=O)CN2C(=O)c3ccccc3C2=O)c2ccccc2)cc1 (stereo not drawn),-8.22
17,CC(=O)c1cccc(NC(=O)c2cc3nc(C)cc(C)n3n2)c1,9.35
18,CCCOc1ccccc1Nc1nnc(C)c(=O)[nH]1,-1.29
19,Cc1ccc(O)c(C(=O)c2cnc(/N=C(\N)N(C)C)nc2)c1,11.8
20,CC(Sc1ccc(S(=O)(=O)N2CCCC2)cn1)C(N)=O (stereo not drawn),8.49
21,COc1ccc(C2C(C(C)=O)=C(O)C(=O)N2c2cccnc2)cc1OC (stereo not drawn),7.47
22,COc1ccc(-c2nn(-c3ccccc3)cc2C(=O)NC(=S)Nc2cc(Cl)ccc2Cl)cc1,4.81
23,C(=C\c1nc(-c2ccccc2)no1)/c1ccccc1,17.6
24,CN(C(=O)COC(=O)C1CCN(S(=O)(=O)c2ccc3c(c2)OCCO3)CC1)c1ccccc1,6.12
